Experimental data reported in PubChem BioAssay AID360 (National Center for Advancing Translational Sciences (NCATS), 2006).
The whole screen tested about 48,000 compounds, of which about 550 (1.1%) were called active. About 4% were inconclusive and are not listed. No stated cut-off is given here; in the data, active means potency below about 15 µM; inconclusive means mostly about 16 µM to 33 µM; inactive means weaker than that. The list shows a part of the results.

The molecules below were run against Lysosomal acid glucosylceramidase (Homo sapiens) (UniProt P04062) (assay: Glucocerebrosidase). Settings: purified enzyme, resorufin glucoside fluorescence (screen aimed at inhibitors), 20 min; series mostly up to 77 µM.
Method in brief: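 Wild-type enzyme at 0.2 nM final in 50mM citric acid/KH2PO4, 10mM sodium taurocholate, 0.01% tween-20, pH 5.9, with resorufin beta-D-glucopyranoside at 30 uM final. Compounds titrated, 20 min at RT, red fluorescence read; AC50 from titration.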
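Further: the screen sought inhibitors.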
Potency means the concentration at half of the fitted maximal effect.

UniProt P04062, sequence (P04062 whole entry, looked up): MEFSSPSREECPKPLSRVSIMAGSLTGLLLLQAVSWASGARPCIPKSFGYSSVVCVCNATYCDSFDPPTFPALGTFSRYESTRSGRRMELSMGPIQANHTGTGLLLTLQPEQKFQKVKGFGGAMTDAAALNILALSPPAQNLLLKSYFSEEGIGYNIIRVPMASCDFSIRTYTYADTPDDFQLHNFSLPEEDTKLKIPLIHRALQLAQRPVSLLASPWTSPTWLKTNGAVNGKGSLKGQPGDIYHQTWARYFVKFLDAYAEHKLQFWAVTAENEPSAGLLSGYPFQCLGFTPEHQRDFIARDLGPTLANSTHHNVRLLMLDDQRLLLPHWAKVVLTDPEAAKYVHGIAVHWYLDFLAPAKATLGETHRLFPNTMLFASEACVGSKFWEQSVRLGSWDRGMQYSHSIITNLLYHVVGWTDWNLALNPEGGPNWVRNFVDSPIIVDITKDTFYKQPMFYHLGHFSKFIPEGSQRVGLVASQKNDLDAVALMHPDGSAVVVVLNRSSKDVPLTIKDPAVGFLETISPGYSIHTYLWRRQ

Potency, inactive:
Cc1ccc(N2CCN(C(=S)c3ccc(N(C)C)cc3)CC2)cc1 > 76.9 µM
COc1ccccc1N(CN1CCCC1=O)C(=O)c1ccccc1F > 76.9 µM
COC(=O)[C@H](C)NC(=O)NCc1ccco1 > 76.9 µM
Cc1ccc(OCC(=O)NCCN2CCCC2)cc1 > 76.9 µM
COc1ccc(-c2c3c(=O)n(C)c(=O)n(C)c3cn2Cc2ccccn2)cc1 > 76.9 µM
COc1ccc(-c2nnc(SCC(=O)NC(C)C)n2CC2CCCO2)cc1OC (centres undefined) > 76.9 µM
COc1ccc(CCNS(=O)(=O)c2ccc3oc(C(=O)O)c(C)c3c2)cc1OC > 76.9 µM
O=C(CN1C(=O)c2ccccc2S1(=O)=O)Nc1cccnc1 > 76.9 µM
Cc1nnc(NC(=O)c2cc3n(n2)C(C(F)(F)F)CC(C2CC2)N3)s1 (centres undefined) > 76.9 µM
CCCNC(=O)c1cc(-c2ccco2)on1 > 76.9 µM
COc1cccc(C(=O)Nc2c3c(nn2-c2ccccc2C)CS(=O)C3)c1OC (centres undefined) > 76.9 µM
Cc1nc2c(C)cccn2c1/C(O)=C1\C(=O)C(=O)N(CCN2CCOCC2)C1c1ccncc1 (centres undefined) > 76.9 µM
Cc1cccc(NS(=O)(=O)c2cccs2)n1 > 76.9 µM
CC(C)OC(=O)CSc1nc2ncccc2[nH]1 > 76.9 µM
CCOC(=O)C(NC(=O)CC)(Nc1sc2c(c1C(=O)OC)CCN(C)C2)C(F)(F)F (centres undefined) > 76.9 µM
COc1ccc(N2C(=O)C3CCCN3C2c2ccc(F)cc2)cc1Cl (centres undefined) > 76.9 µM
COC(=O)c1sc(NC(=O)CSc2nnc(C(C)C)n2C)nc1C > 76.9 µM
CC1=[N+]([O-])C(C)(C)CC(C)(C)c2ccccc21 > 76.9 µM
CC(C)(C)c1ccccc1OCC(=O)Nc1ncn[nH]1 > 76.9 µM
Cn1c(SCC(=O)c2cccs2)nnc1-c1ccco1 > 76.9 µM
Cc1cccn2c(=O)c(/C=N/O)c(N3CCCCC3)nc12 > 76.9 µM
CCOC(=O)c1ccc(NC(=O)CC2SCCNC2=O)cc1 (centres undefined) > 76.9 µM
Cc1cc(NC(=O)COc2ccc3oc4ccccc4c3c2)no1 > 76.9 µM
O=C(Cc1c(O)c2ccccc2[nH]c1=O)NCc1ccc(F)cc1 > 76.9 µM
CCOC(=O)N1CCC(NC(=O)C2CCN(C(=O)N3CCOc4ccccc43)CC2)CC1 > 76.9 µM
CCC(C)(C)NC(=O)C(c1cccn1C)N(C(=O)Cn1nnc2ccccc21)c1ccc(F)cc1 (centres undefined) > 76.9 µM
COc1ccc(OCC(=O)Nc2ccc(S(=O)(=O)N3CCOCC3)cc2)cc1 > 76.9 µM
O=C(Nc1ccc2c(c1)OCCO2)c1ccc(S(=O)(=O)N2CCCCC2)cc1 > 76.9 µM
CCOC(=O)c1[nH]c2ccc(C)cc2c1NC(=O)CN1CCCCC1 > 76.9 µM
Nc1nnc(SCC(=O)Nc2ccc(F)c(Cl)c2)n1-c1ccccc1 > 76.9 µM
O=C1OCCC1Sc1nnc(-c2ccccc2)o1 (centres undefined) > 76.9 µM
Cc1cc(C)nc(SCC(=O)Nc2ncc3c(n2)CC(C)(C)CC3=O)n1 > 76.9 µM
COc1cc2[nH]c(=S)n(CCN3CCCCC3C)c(=O)c2cc1OC (centres undefined) > 76.9 µM
COC(=O)CN(c1ccc(OC)c(OC)c1)S(C)(=O)=O > 76.9 µM
COc1cccc(OC)c1Oc1ccc(C(F)(F)F)cn1 > 76.9 µM
COCCn1c(=O)[nH]c2cc(C(=O)NCCCN3CCN(c4ccc(F)cc4)CC3)ccc2c1=O > 76.9 µM
CCOC(=O)c1ccc(NC(=O)C2CCN(S(=O)(=O)CC)CC2)cc1
COc1cc(OC)cc(-c2nnc(SCC(=O)N3c4ccccc4Sc4ccccc43)o2)c1 > 76.9 µM
Cc1ccc2cc3cc(C(=O)NCc4ccc5c(c4)OCO5)oc3nc2c1 > 76.9 µM
CCOC(=O)CNC(=O)c1cn(CC)c(=O)c2cc(OC)c(OC)cc12 > 76.9 µM
COC(=O)c1c(NS(C)(=O)=O)sc2c1CCCC2 > 76.9 µM
O=C(Cn1nnc(-c2ccccc2)n1)OCc1csc(-c2ccccc2)n1 > 76.9 µM
C=C(c1cccc2ccccc12)P(=O)(O)O > 76.9 µM
O=C(CSc1nnc2scc(-c3ccccc3)n12)NCc1ccc2c(c1)OCO2 > 76.9 µM
CCOc1cccc(C(=O)Nc2ccc(N3CCN(S(C)(=O)=O)CC3)cc2)c1 > 76.9 µM
COC(=O)C1(S(=O)(=O)c2cc(Br)cc3c2N(C(C)=O)CC3)CC1 > 76.9 µM
CCOC(=O)C1CCN(C/C=C/c2ccccc2OC)CC1 > 76.9 µM
O=C(Nc1ccccc1Cl)c1cccs1 > 76.9 µM
Cc1ccccc1C(=O)Nc1ccc2c(c1)OCO2 > 76.9 µM
COc1ccc(NC(=O)NCCCN2CCCCC2C)cc1 (centres undefined) > 76.9 µM
O=C(NC1CCCC1)C(c1ccccc1)N(C(=O)c1ccno1)c1cccnc1 (centres undefined) > 76.9 µM
O=C(CSc1nc(Nc2ccccc2)nc(N2CCOCC2)n1)N1CCCC1 > 76.9 µM
COC(=O)c1cn(NC(=O)C2CCCCC2)c(=O)c2ccccc12 > 76.9 µM
O=S(=O)(Cc1ccc(Cl)cc1)N1CCN(Cc2ccccc2)CC1 > 76.9 µM
c1ccc(Cn2c(NCc3ccco3)nc3ccccc32)cc1 > 76.9 µM
CCCc1cn(S(=O)(=O)c2ccc(OC)cc2OC)nc1N > 76.9 µM
CCOc1cc(NS(C)(=O)=O)c(OCC)cc1NC(=O)c1cccs1 > 76.9 µM
N#Cc1c(F)cccc1N1CCOCC1 > 76.9 µM
Cc1nn(-c2ccccc2)c2[nH]c(=O)c(CNCc3ccc4c(c3)OCO4)cc12 > 76.9 µM
